In the supplement of paper PMC8285479:
Counter-ions that a name gives are not always drawn. ± gives the standard deviation of the averaged measurements. In all, about 1,900 compounds were measured (“normalised cell viability (NPI; 0 = phenylarsine oxide control, 1 = DMSO control)”: median about 1, lowest 2% from about 0.039 on). This is one part of the list.

Test system: NCI-H1944
Assay: normalised cell viability (NPI; 0 = phenylarsine oxide control, 1 = DMSO control) (fraction of DMSO control); NCI-H1944 is a non-small cell lung cancer line; higher = more viable cells (less compound toxicity)
Details: 6 days
[1] = glucocorticoid arm: hydrocortisone 2.75 uM co-treatment, compound 1 µM
[2] = glucocorticoid arm: hydrocortisone 2.75 uM co-treatment, compound 5 µM
[3] = glucocorticoid arm: hydrocortisone 2.75 uM pre-treated 2 days and continued, compound 1 µM
[4] = glucocorticoid arm: hydrocortisone 2.75 uM pre-treated 2 days and continued, compound 5 µM
[5] = glucocorticoid arm: vehicle, compound 1 µM
[6] = glucocorticoid arm: vehicle, compound 5 µM
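Note: CTB read-out in 384-well plates, mean of triplicate wells, normalised per plate against 1 µM phenylarsine oxide and 0.1% DMSO, compounds added 24 h after seeding.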

Compound	normalised cell viability [1]	normalised cell viability [2]	normalised cell viability [3]	normalised cell viability [4]	normalised cell viability [5]	normalised cell viability [6]
CCC(COC(=O)c1cc(OC)c(OC)c(OC)c1)(c1ccccc1)N(C)C (stereo not given) [Trimebutine]	0.969 ± 0.017	0.921 ± 0.0092	0.978 ± 0.017	0.936 ± 0.032	0.9893 ± 0.0093	0.9927 ± 0.0031
C=C(C)[C@@H]1[C@H]2OC(=O)[C@@H]1[C@]1(O)C[C@H]3OC34C(=O)O[C@H]2[C@@]41C.CC(C)(O)[C@@H]1[C@H]2OC(=O)[C@@H]1[C@]1(O)C[C@H]3OC34C(=O)O[C@H]2[C@@]41C (stereo not given in full) [Picrotoxin]	0.991 ± 0.012	0.998 ± 0.028	0.995 ± 0.0061	0.9897 ± 0.0091	1.005 ± 0.0087	1.001 ± 0.0081
CCCN1CCc2cc(O)cc3c2[C@H]1Cc1ccc(O)c(O)c1-3 [R(-)-2,10,11-Trihydroxy-N-propylnoraporphine hydrobromide]	0.989 ± 0.023	0.979 ± 0.012	0.987 ± 0.015	0.959 ± 0.0066	0.977 ± 0.011	0.971 ± 0.016
C[C@@]12N[C@@H](Cc3ccccc31)c1ccccc12 [(-)-MK-801 hydrogen maleate]	1.01 ± 0.01	1.02 ± 0.026	1.013 ± 0.0058	1.05 ± 0.094	0.992 ± 0.0092	1 ± 0.017
C[C@@]12N[C@@H](Cc3ccccc31)c1ccccc12 [(-)-MK 801 Maleate]	1.023 ± 0.0058	1.02	1.02 ± 0.011	1.03 ± 0.015	1.01	1.01
CCCN(CCC)[C@@H]1CCc2cccc(O)c2C1 [R-(+)-8-Hydroxy-DPAT hydrobromide]	0.995 ± 0.0087	0.972 ± 0.017	0.9973 ± 0.0046	0.996 ± 0.015	1.013 ± 0.0058	1.002 ± 0.0076
C#CCN[C@H](C)Cc1ccccc1 [R-(-)-Desmethyldeprenyl hydrochloride]	0.9987 ± 0.0015	1.001 ± 0.009	1.01	0.9983 ± 0.0015	0.9947 ± 0.0046	0.9967 ± 0.004
Cc1nnc2ccc(-c3cccc(C(F)(F)F)c3)nn12	1.01 ± 0.012	1.01 ± 0.01	1.01 ± 0.01	1.04 ± 0.088	0.9913 ± 0.0064	0.993 ± 0.015
C#C[C@]1(O)C=C[C@H]2[C@@H]3CCC4=CC(=O)CC[C@@H]4[C@H]3CC[C@@]21CC [Gestodene]	1.01 ± 0.011	1.04 ± 0.015	1.02 ± 0.017	1.03 ± 0.017	1.003 ± 0.0064	0.9813 ± 0.0075
Cc1cccc([C@H](C)c2c[nH]cn2)c1C [Dexmedetomidine]	1.02 ± 0.01	1.06 ± 0.023	1.01 ± 0.011	1.02 ± 0.025	1.013 ± 0.0058	1.03 ± 0.01
CC(C)(C)NCC(O)c1ccccc1Cl (stereo not given) [Tulobuterol hydrochloride]	0.9983 ± 0.0029	0.977 ± 0.022	0.932 ± 0.12	1.01 ± 0.012	0.98967 ± 0.00058	0.9967 ± 0.0042
CC1(C(=O)O)C2CCC(O2)C1(C)C(=O)O (stereo not given) [Cantharidic Acid]	0.983 ± 0.016	0.0223 ± 0.0017	1.06 ± 0.015	0.137 ± 0.087	0.965 ± 0.025	0.0108 ± 0.0036
Oc1ccc2c3c1O[C@H]1c4oc5ccccc5c4C[C@@]4(O)[C@@H](C2)N(CC2CC2)CC[C@]314 [Naltriben methanesulfonate]	0.998 ± 0.0035	1.02 ± 0.025	1.01	1.09 ± 0.072	0.9913 ± 0.0049	1.01 ± 0.013
O=P1(NCCCl)OCCCN1CCCl (stereo not given) [Ifosfamide]	1.02 ± 0.01	0.986 ± 0.022	0.9973 ± 0.0046	0.994 ± 0.014	1.006 ± 0.0075	1.001 ± 0.0081
N#CCCN [3-Aminopropionitrile fumarate]	0.9843 ± 0.0081	0.981 ± 0.017	0.978 ± 0.012	0.985 ± 0.018	0.983 ± 0.018	0.9823 ± 0.0025
NC(=O)CN1CCCC1=O [Piracetam]	1.02 ± 0.01	1.027 ± 0.0058	1.017 ± 0.0058	1.027 ± 0.0058	1.007 ± 0.0058	1.01 ± 0.017
NCc1cc(O)no1 [Muscimol hydrobromide]	1.006 ± 0.0069	0.993 ± 0.015	1.01 ± 0.013	0.992 ± 0.031	1.01	1.003 ± 0.0061
CC(=O)NBr [N-Bromoacetamide]	0.992 ± 0.016	0.9953 ± 0.005	1 ± 0.017	1.025 ± 0.0071	0.9947 ± 0.0092	1.013 ± 0.0058
CC(C)NP(=O)(NC(C)C)OP(=O)(NC(C)C)NC(C)C [Tetraisopropyl pyrophosphoramide]	1.01	1.01	1.03 ± 0.026	1.037 ± 0.0058	1.013 ± 0.0058	1.005 ± 0.0087
C=CCc1ccccc1OCC(O)CNC1(C)CCC(C(C)(C)NC(=O)CBr)CC1 (stereo not given) [Bromoacetyl alprenolol menthane]	0.9893 ± 0.0093	-0.000605 ± 0.0006	0.994 ± 0.016	0.0027 ± 0.0058	0.978 ± 0.004	-0.000518 ± 0.00015
Cc1c2ccncc2c(C)c2c1[nH]c1ccccc12 [Ellipticine]	0.843 ± 0.013	0.381 ± 0.026	0.979 ± 0.013	1 ± 0.014	0.701 ± 0.032	0.23 ± 0.018
CN[C@@H]1C[C@H]2O[C@@](C)([C@@H]1OC)n1c3ccccc3c3c4c(c5c6ccccc6n2c5c31)C(=O)NC4 [Staurosporine]	0.0825 ± 0.0098	0.0186 ± 0.003	0.246 ± 0.01	0.0923 ± 0.017	0.0216 ± 0.0022	0.00445 ± 0.0013
Cc1c(N)nc([C@H](CC(N)=O)NC[C@H](N)C(N)=O)nc1C(=O)N[C@H](C(=O)N[C@H](C)[C@@H](O)[C@H](C)C(=O)N[C@H](C(=O)NCCc1nc(-c2nc(C(=O)NCCC[S+](C)C)cs2)cs1)[C@@H](C)O)[C@@H](OC1OC(CO)C(O)C(O)C1OC1OC(CO)C(O)C(OC(N)=O)C1O)c1cnc[nH]1 (stereo not given in full) [Bleomycin sulfate]	0.669 ± 0.048	0.196 ± 0.017	0.9903 ± 0.0051	0.637 ± 0.034	0.142 ± 0.024	0.0339 ± 0.0093
O=C(O[C@H]1C[N+]2(CCCOc3ccccc3)CCC1CC2)C(O)(c1cccs1)c1cccs1 [Aclidinium Bromide]	1.01 ± 0.017	0.975 ± 0.02	1.033 ± 0.0058	0.971 ± 0.034	0.9967 ± 0.0058	0.9883 ± 0.0051
Oc1ncc(N(CCCl)CCCl)c(O)n1 [Uracil mustard]	0.972 ± 0.007	1.06 ± 0.011	1.043 ± 0.0058	1.033 ± 0.0058	0.244 ± 0.021	1.01 ± 0.011
